# Source: PubChem BioAssay (NCATS)
# For some of these results: The hits were mostly taken out for another list; the other results follow. Results filed as inconclusive are left out. The entries are a selection whose mix differs from that of the whole data set. Calls of active or inactive are those of the source. Unless noted, calls follow the shape of the dose curve; as a rule, active = well fitted curve in the direction sought with a large enough effect; inconclusive = small, poorly fitted or top-dose-only effect, or another doubt; inactive = no such curve, though single readings can be large; an effect the other way counts as inactive or inconclusive.
# Columns and labels:
# [1] = target: Cytochrome P450 3A4 (Homo sapiens) (UniProt P08684); assay: qHTS Assay for Inhibitors and Substrates of Cytochrome P450 3A4 (AID 884); conditions: recombinant CYP3A4, Luciferin-PPXE luminescence; series mostly up to 57.1 µM; also: nearly all actives have a fitted effect of over 50% in size; also: potency is read from the fitted curve at half-maximal effect; as to activity change, negative = inhibition: % is scaled to controls: 0 for no effect and ±100 for the full control effect
# Protocol: (§1) NIH Molecular Libraries Screening Centers Network [MLSCN]
# (§2) NIH Chemical Genomics Center [NCGC]
# (§3) The P450 gene superfamily is involved in the metabolism and clearance of xenobiotics. This assay used human CYP3A4 to measure the dealkylation of luciferin-6' phenylpiperazinylyl (Luciferin-PPXE; […]) to luciferin. The luciferin is then measured by luminescence after the addition of a luciferase detection reagent. Luciferin-PPXE concentration in the assay was equal to its KM for CYP3A4. Inhibitors and some substrates limit the production of luciferin, and decrease measured luminescence.
# (§4) NCGC Assay Protocol Summary:
# (§5) Two uL of enzyme and substrate mix (final concentrations: 20nM CYP3A4, 25uM Luciferin-PPXE, 200mM KPO4) were dispensed into a white, solid bottom 1536-well microtiter plate. 23nL of compound was transferred by a pin tool. The plate was incubated at RT for 10 min. Two uL of an NADPH regeneration solution (Promega supplied reagent) was dispensed and the reaction was allowed to continue for 60 min at RT. Then the reaction was stopped by reconstituted luciferin detection buffer. After another 20 min of incubation the plate was read on the ViewLux (Perkin Elmer) at 60 sec exposure and 2x2 binning. This protocol was carried out with Promega-Glo reagents and further information can be found at http://www.promega.com/tbs/tb325/tb325.pdf. Data were normalized to the to AC100 inhibition (57 uM ketoconazole).
# Keywords: P450, CYP3A4, Luciferase, MLSMR, MLSCN, NIH Roadmap, qHTS, NCGC
# [2] = target: Cytochrome P450 3A4 (Homo sapiens) (UniProt P08684); assay: qHTS Assay for Activators of Cytochrome P450 3A4 (AID 885); conditions: recombinant CYP3A4, Luciferin-PPXE luminescence, 60 min; at 57.1 µM (top of the series) unless noted; also: nearly all actives have a fitted effect of over 65% in size
# Protocol: as §1, §2
# as §3, with “decrease measured luminescence; activators increase the production of luciferin and luminescence.” for “decrease measured luminescence.”
# as §4
# as §5, with “This protocol was carried out with Promega-Glo reagents and further information can be found at http://www.promega.com/tbs/tb325/tb325.pdf. Data were normalized to the to AC100 inhibition (57 uM ketoconazole).” left out
# [3] = target: Voltage-gated inwardly rectifying potassium channel KCNH2 (Homo sapiens) (UniProt Q12809); assay: qHTS Assay for Small Molecule Inhibitors of the Human hERG Channel Activity (AID 588834); conditions: U2OS BacMam hERG, FluxOR thallium flux fluorescence; series mostly up to 46.1 µM;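 also: lower thallium flux fluorescence means stronger hERG block; nearly all actives have a fitted effect of over 50% in size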; also: potency is read from the fitted curve at half-maximal effect; as to activity change, negative = inhibition: top concentration of the series differs between compounds; % is scaled to controls: 0 for no effect and ±100 for the full control effect
# Method in brief: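 Measured: FluxOR fluorescence after thallium stimulation in U2OS cells transduced with hERG by baculovirus. Compounds pre-incubated around 10 min; medium Opti-MEM with 2% FCS. AC50 from Hill equation.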
# [4] = target: Cytochrome P450 3A4 (Homo sapiens) (UniProt P08684); assay: Cytochrome P450 family 3 subfamily A member 4 (CYP3A4) small molecule antagonists: luciferase qHTS assay (AID 1645841; active = well fitted curve in the direction sought with a large enough effect in the repeat runs; an effect the other way counts as inactive or inconclusive; also: nearly all actives have a fitted effect of over 45% in size); conditions: P450-Glo CYP3A4 enzyme assay, luciferin luminescence; at 57.4 µM (top of the series) unless noted
# Method in brief: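 Luminescent CYP3A4 activity readout: compounds plus enzyme-substrate mix 10 min at room temperature, reaction started with NADPH regenerating system for 1 h, stopped with detection reagent, read after 20 min. Ketoconazole served as control.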
# [5] = target: Cytochrome P450 2C9 (Homo sapiens) (UniProt P11712); assay: Cytochrome P450 family 2 subfamily C member 9 (CYP2C9) small molecule antagonists: luciferase biochemical (cell-free) qHTS assay (AID 1645842; active = well fitted curve in the direction sought with a large enough effect in the repeat runs; an effect the other way counts as inactive or inconclusive; also: nearly all actives have a fitted effect of over 55% in size; also: potency is read from the fitted curve at half-maximal effect; as to activity change, negative = inhibition: % is scaled to controls: 0 for no effect and ±100 for the full control effect); conditions: P450-Glo CYP2C9 enzyme assay, luciferin luminescence; series mostly up to 57.4 µM
# Method in brief: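 Luminescence, after 20 min with luciferin detection reagent, reflected CYP2C9 turnover during a 1 h NADPH-driven reaction at 37C. Enzyme-substrate mix contained 0.4% bovine serum albumin and was preincubated with compound 10 min at room temperature.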
# [6] = target: Cytochrome P450 1A2 (Homo sapiens) (UniProt P05177); assay: p450-cyp1a2 (AID 410; calls by dose curve; also: potency is read from the fitted curve at half-maximal effect;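 as to activity change, negative = inhibition: top concentration of the series differs between compounds; -100% = full effect of reference inhibitor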); conditions: recombinant CYP1A2, luciferin-ME demethylation, luminescence; series mostly up to 25.6 µM
# Method in brief: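 20nM CYP1A2 with 100uM Luciferin-ME (at Km) in 100mM KPO4; compound preincubated 10 min, NADPH regeneration added, 60 min at room temperature. Luciferin quantified by luminescence after detection reagent; normalized to 57 uM furafylline.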
# [7] = target: Cytochrome P450 2C9 (Homo sapiens) (UniProt P11712); assay: qHTS Assay for Inhibitors and Substrates of Cytochrome P450 2C9 (AID 883); conditions: recombinant CYP2C9, luciferin-H luminescence, 60 min; series mostly up to 57.1 µM; also: nearly all actives have a fitted effect of over 60% in size; also: potency is read from the fitted curve at half-maximal effect; as to activity change, negative = inhibition: % is scaled to controls: 0 for no effect and ±100 for the full control effect
# Method in brief: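 Inhibition of CYP2C9 is scored as loss of luminescence, with 57uM sulphaphenazole defining 100% inhibition. Substrate Luciferin-H is used at 100uM, equal to its KM; enzyme at 10nM in 25mM KPO4, 60 min at 37C with NADPH regeneration.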
# [8] = target: Cytochrome P450 2C19 (Homo sapiens) (UniProt P33261); assay: qHTS Assay for Inhibitors and Substrates of Cytochrome P450 2C19 (AID 899); conditions: recombinant CYP2C19, luciferin-H EGE luminescence; series mostly up to 57.1 µM; also: nearly all actives have a fitted effect of over 60% in size; also: potency is read from the fitted curve at half-maximal effect
# Method in brief: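 5nM enzyme + 10uM Luciferin-H EGE (=KM), 50mM KPO4; cpd pin-transferred, 10 min 37C; NADPH regen, 60 min 37C; stopped w/ luciferin detection reagent, 20 min; luminescence. Normalized to 57uM ketoconazole (AC100).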
# [9] = target: Cytochrome P450 2D6 (Homo sapiens) (UniProt P10635); assay: qHTS Assay for Inhibitors and Substrates of Cytochrome P450 2D6 (AID 891); conditions: recombinant CYP2D6, luciferin-ME EGE luminescence; at 57.1 µM (top of the series);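 also: luciferin methyl ether substrate demethylated by CYP2D6 with NADPH regeneration; top concentration of the series differs between compounds; % is scaled to controls: 0 for no effect and ±100 for the full control effect; nearly all actives have a fitted effect of over 60% in size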
# Method in brief: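 Human CYP2D6 (5 nM) with 30 uM Luciferin-ME EGE (at Km) in 100 mM KPO4, compound preincubated 10 min, then NADPH regeneration system for 60 min at room temperature. Luciferin read by luminescence; normalized to 1.43 uM quinidine.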
# UniProt P08684, sequence (P08684 whole entry, looked up): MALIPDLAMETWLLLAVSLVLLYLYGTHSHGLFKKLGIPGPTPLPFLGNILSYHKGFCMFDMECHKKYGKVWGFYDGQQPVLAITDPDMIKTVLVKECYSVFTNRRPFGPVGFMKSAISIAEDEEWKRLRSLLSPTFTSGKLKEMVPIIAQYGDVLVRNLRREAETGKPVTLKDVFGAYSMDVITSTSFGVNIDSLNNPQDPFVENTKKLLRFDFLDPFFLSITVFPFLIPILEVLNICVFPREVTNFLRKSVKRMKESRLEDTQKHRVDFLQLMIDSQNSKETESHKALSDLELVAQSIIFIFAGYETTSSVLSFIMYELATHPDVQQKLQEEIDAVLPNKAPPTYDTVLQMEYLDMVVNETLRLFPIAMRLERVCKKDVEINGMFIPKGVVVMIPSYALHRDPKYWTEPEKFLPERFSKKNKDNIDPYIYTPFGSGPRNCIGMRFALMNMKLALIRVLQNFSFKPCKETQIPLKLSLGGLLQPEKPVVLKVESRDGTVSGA
# UniProt P05177, sequence (P05177 whole entry, looked up): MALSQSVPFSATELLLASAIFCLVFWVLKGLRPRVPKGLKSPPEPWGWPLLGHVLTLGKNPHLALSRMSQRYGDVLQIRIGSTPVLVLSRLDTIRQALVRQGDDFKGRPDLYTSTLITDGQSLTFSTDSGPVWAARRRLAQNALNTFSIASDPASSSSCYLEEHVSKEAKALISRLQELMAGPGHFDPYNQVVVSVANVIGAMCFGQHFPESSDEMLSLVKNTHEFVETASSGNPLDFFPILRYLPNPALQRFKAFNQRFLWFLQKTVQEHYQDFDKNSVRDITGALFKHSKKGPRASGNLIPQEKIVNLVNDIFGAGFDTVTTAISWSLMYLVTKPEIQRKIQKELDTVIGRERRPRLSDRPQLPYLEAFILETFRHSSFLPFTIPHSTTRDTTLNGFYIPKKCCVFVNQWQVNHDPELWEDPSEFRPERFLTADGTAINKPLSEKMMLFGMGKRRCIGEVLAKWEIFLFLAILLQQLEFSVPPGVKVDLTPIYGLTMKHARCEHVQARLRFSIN
# UniProt P11712, sequence (P11712 whole entry, looked up): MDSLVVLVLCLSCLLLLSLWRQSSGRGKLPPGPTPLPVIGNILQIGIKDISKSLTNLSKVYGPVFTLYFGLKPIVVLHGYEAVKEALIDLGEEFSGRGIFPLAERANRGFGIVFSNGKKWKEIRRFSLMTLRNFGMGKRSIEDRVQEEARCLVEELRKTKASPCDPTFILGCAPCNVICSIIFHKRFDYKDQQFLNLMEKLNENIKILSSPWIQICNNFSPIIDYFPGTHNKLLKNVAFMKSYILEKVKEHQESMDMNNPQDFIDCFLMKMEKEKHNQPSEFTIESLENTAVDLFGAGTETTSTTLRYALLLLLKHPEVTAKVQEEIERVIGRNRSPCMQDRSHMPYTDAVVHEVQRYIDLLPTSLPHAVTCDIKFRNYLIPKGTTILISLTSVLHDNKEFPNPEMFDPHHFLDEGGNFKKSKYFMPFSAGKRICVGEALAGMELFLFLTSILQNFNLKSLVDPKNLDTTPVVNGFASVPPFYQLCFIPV
# UniProt Q12809, sequence (Q12809 whole entry, looked up): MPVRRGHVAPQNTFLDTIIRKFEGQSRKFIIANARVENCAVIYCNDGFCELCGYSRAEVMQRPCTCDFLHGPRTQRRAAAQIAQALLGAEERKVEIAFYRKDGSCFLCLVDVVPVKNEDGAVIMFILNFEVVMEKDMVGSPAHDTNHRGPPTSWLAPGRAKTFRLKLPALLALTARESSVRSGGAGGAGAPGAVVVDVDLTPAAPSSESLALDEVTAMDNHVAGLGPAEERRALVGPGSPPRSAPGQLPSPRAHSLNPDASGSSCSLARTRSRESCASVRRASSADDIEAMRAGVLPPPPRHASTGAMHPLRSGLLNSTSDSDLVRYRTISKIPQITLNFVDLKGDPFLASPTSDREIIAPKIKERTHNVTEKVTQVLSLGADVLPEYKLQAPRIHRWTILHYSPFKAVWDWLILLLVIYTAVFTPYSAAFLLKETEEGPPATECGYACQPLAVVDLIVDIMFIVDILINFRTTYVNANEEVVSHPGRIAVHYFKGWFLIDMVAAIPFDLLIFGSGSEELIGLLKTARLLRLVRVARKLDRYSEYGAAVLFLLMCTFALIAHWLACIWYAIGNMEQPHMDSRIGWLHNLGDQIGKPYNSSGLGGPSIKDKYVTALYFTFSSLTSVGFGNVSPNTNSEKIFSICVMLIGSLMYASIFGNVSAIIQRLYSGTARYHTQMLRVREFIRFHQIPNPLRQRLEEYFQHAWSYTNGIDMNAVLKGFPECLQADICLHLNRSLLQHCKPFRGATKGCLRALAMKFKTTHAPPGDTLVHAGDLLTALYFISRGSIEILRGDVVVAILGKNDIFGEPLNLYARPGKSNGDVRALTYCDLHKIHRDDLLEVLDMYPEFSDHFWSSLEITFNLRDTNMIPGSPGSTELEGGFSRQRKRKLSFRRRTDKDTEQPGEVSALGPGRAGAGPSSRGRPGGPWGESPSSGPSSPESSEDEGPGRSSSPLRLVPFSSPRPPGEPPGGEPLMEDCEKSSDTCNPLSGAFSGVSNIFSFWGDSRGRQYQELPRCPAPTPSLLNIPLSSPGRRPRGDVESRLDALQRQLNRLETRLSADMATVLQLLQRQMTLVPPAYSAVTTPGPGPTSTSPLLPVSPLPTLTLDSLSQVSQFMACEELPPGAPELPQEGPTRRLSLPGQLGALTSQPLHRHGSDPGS
# UniProt P33261, sequence (P33261 whole entry, looked up): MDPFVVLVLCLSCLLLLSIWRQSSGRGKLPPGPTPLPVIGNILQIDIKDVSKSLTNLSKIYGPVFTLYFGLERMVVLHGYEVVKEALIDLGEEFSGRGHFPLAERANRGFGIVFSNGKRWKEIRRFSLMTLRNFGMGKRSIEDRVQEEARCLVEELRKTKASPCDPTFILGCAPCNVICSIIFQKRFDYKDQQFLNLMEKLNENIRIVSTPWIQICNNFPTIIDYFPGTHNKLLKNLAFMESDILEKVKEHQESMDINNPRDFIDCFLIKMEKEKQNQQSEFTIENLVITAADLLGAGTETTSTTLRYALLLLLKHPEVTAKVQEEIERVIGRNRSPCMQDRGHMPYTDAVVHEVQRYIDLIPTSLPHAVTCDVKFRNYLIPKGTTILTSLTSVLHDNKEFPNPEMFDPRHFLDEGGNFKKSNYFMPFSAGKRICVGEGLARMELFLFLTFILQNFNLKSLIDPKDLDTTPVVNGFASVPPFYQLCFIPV
# UniProt P10635, sequence (P10635 whole entry, looked up): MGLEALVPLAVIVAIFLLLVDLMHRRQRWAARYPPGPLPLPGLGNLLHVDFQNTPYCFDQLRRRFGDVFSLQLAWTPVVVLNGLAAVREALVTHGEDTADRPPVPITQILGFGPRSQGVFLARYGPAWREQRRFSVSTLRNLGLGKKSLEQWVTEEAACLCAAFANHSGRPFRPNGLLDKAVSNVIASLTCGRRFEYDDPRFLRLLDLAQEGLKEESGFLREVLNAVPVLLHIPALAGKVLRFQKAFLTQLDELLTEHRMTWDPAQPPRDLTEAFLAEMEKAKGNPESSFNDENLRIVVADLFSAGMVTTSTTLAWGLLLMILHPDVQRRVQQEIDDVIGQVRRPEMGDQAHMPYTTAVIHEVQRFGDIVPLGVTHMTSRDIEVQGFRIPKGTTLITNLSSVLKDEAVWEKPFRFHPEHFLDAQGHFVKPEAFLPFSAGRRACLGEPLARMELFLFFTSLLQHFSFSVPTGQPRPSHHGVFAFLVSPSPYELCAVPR
smiles,measurement,setting,value
COC(=O)c1ccc(C23CC4(C2)[C@H](CN(Cc2cccnc2)[C@@H]4c2ccccc2)C3c2ccc(Cl)nc2)cc1 (some centres undefined),Potency,[1],active: 3.98 µM
same,"activity change, positive = activation",[2],inactive: -100%
CCC(C)(CN(C)C)OC(=O)c1ccccc1 (centres undefined),Potency,[3],inactive
same,"activity change, negative = inhibition",[4],inactive: -1.55%
same,Potency,[5],inactive
Nc1ccc(C(=O)Nc2cccc(-c3nc(N4CCOCC4)c4oc5ncccc5c4n3)c2)cn1,Potency,[5],active: 8.49 µM
O=C1OCCN1/N=C/c1ccc([N+](=O)[O-])o1,Potency,[3],inactive
same,Potency,[5],inactive
Cc1c(NC(=O)N2CCOCC2)ccc2c1c1ccccc1n2C(C)C,Potency,[5],active: 1.34 µM
O=C(c1ccc(F)cc1)N1CCCC(c2nc(-c3ccc(F)cc3)no2)C1 (centres undefined),Potency,[5],active: 10.7 µM
NC(N)=NCCN1CCCCCCC1,Potency,[3],inactive
NC(=O)NNc1ccccc1,Potency,[3],inactive
same,"activity change, negative = inhibition",[4],inactive: -4.22%
CCCCC(=O)OCC(=O)[C@H]1[C@H](C)C[C@H]2[C@@H]3C[C@H](F)C4=CC(=O)C=C[C@]4(C)[C@@]3(F)[C@@H](O)C[C@@]21C,Potency,[5],active: 6.92 µM
C[C@@H]1C[C@H]2[C@@H]3C[C@H](F)C4=CC(=O)C=C[C@]4(C)[C@@]3(F)[C@@H](O)C[C@]2(C)[C@@]1(O)C(=O)CO,Potency,[3],inactive
same,"activity change, negative = inhibition",[4],inactive: -8.17%
same,Potency,[5],inactive
CC[C@](C)(CN(C)C)OC(=O)c1ccccc1,Potency,[6],active: 10 µM
O=S(=O)(c1ccccc1)N1CCN(S(=O)(=O)c2ccccc2)c2ccccc21,"activity change, negative = inhibition",[6],inactive: -19.9% [at 2.29 µM]
same,Potency,[7],active: 251 nM
same,Potency,[1],active: 3.98 µM
same,"activity change, positive = activation",[2],inactive: -72.3% [at 11.4 µM]
same,Potency,[8],active: 126 nM
CCn1cc(C(=O)O)c(=O)c2cc(F)c(N3CCN(C)CC3)cc21,Potency,[1],inactive
same,Potency,[3],inactive
same,"activity change, negative = inhibition",[4],inactive: 85.8% [at 23.9 µM]
same,Potency,[5],inactive
N#Cc1ccc(-c2ccc(S(=O)(=O)Nc3cccc(N)n3)cc2)cc1,Potency,[5],active: 12 µM
C[C@@H]1C[C@H]2[C@@H]3C[C@H](F)C4=CC(=O)C=C[C@@]4(C)[C@]3(F)[C@H](O)C[C@]2(C)[C@@]1(O)C(=O)CO,Potency,[6],inactive
COCC(=O)Nc1cc(Sc2ccccc2)ccc1N=C(NC(=O)OC)NC(=O)OC,Potency,[3],active: 2.24 µM
COC(=O)C1=C(C)NC(C)=C(C(=O)OC)C1c1ccccc1[N+](=O)[O-],Potency,[3],inactive
CCc1nc2ccc(C(=O)N3CCN(c4cc(C)ccc4C)CC3)cc2nc1CC,Potency,[5],active: 3.79 µM
CC(C)n1c(=O)c(C(=O)NC2CC3CCC(C2)N3C[C@@H](O)CN(C)S(C)(=O)=O)cc2ccccc21 (some centres undefined),"activity change, negative = inhibition",[4],inactive: -13.7%
same,Potency,[5],inactive
Cc1cc(/C=C/c2ccc3cc(N(C)C)ccc3[n+]2C)c(C)n1-c1ccccc1,Potency,[3],active: 6.31 µM
same,"activity change, negative = inhibition",[4],inactive: 13.5%
same,Potency,[5],active: 10.7 µM
CC(C)(CO)[C@@H](O)C(=O)NCCC(=O)NCCSSCCNC(=O)CCNC(=O)[C@H](O)C(C)(C)CO,Potency,[3],inactive
same,"activity change, negative = inhibition",[4],inactive: -6.29%
same,Potency,[5],inactive
COc1cc2c(cc1OC)C(=O)C(CC1CCN(Cc3ccccc3)CC1)C2 (centres undefined),"activity change, negative = inhibition",[4],inactive: 311%
same,Potency,[5],inactive
CCC[C@@H]1C[C@@H](C(=O)N[C@@H]([C@H]2O[C@H](SC)[C@H](O)[C@@H](O)[C@H]2O)[C@H](C)Cl)N(C)C1,Potency,[3],inactive
CCC[C@H]1C[C@H](C(=O)N[C@@H]([C@H]2O[C@@H](SC)[C@@H](O)[C@@H](O)[C@@H]2O)[C@H](C)Cl)N(C)C1,Potency,[6],inactive
Nc1nc2ccc(OC(F)(F)F)cc2s1,Potency,[7],inactive
same,"activity change, negative = inhibition",[9],inactive: -4.18%
same,Potency,[8],inactive
same,Potency,[3],inactive
same,"activity change, negative = inhibition",[4],inactive: -26.7%
